The list shows a part of the results. Antibody binding of pooled human sera (four to six donors per pool; dilution not stated) to peptides of the Trypanosoma cruzi antigen TSSA on microarrays. Quantile-normalised fluorescence in arbitrary units, mean of duplicate arrays; higher = more binding. No active / inactive call. The uninfected pools are read here as the healthy donors of the same country. The strongest signals lie near the top of the scale (about 60,000).
Experiments:
Test in all cases: antibody binding signal (normalised fluorescence) (arbitrary fluorescence units); higher = stronger serum antibody binding to peptide
[1] = system: pooled sera of chronic Chagas disease patients, Bolivia
Method: (§1)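 Microarray of 15-residue peptides over residues 30-55 of Trypanosoma cruzi TSSAII, each with 1 to 10 substitutions at naturally variable positions, probed with one serum pool per country.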

[2] = system: pooled sera of chronic Chagas disease patients, Brazil
Method: as §1

[3] = system: pooled sera of chronic Chagas disease patients, Colombia
Method: as §1

[4] = system: pooled sera of chronic Chagas disease patients, Mexico
Method: as §1

[5] = system: pooled sera of chronic Chagas disease patients, USA
Method: as §1

[6] = system: pooled sera of uninfected people, Argentina
Method: as §1

[7] = system: pooled sera of uninfected people, Bolivia
Method: as §1

[8] = system: pooled sera of uninfected people, Brazil
Method: as §1

[9] = system: pooled sera of uninfected people, Colombia
Method: as §1

[10] = system: pooled sera of uninfected people, Mexico
Method: as §1

[11] = system: pooled sera of uninfected people, USA
Method: as §1

Sequence	antibody binding signal [1]	antibody binding signal [2]	antibody binding signal [3]	antibody binding signal [4]	antibody binding signal [5]	antibody binding signal [6]	antibody binding signal [7]	antibody binding signal [8]	antibody binding signal [9]	antibody binding signal [10]	antibody binding signal [11]
SGTDKKTAAGGTPSQ	255	648	18400	996	2180	204	142	871	403	707	177
KTAAGGAPSQSGASS	253	370	6220	1170	250	299	155	152	114	361	206
TPPSGKDNKPAAGEA	14500	30400	238	37200	13600	336	758	302	286	254	189
TPPSGKDNKAAAGET	1720	1660	218	18800	4510	367	717	260	322	184	112
GKEKKAAAGEAPSPS	766	1220	5420	7280	9570	179	94.5	112	76.8	92.7	98.5
PSGKDKKPAAGGTPS	1930	4330	6930	7420	6270	149	388	394	124	141	115
GTDKKPATGGAPSQS	961	3370	5960	1920	1700	291	942	137	150	271	228
TEKKTAAGEAPSQSG	11400	4440	591	571	7480	151	331	239	1040	443	205
GKDNKTATGEAPSQS	13900	20200	5840	4080	21200	336	245	151	371	123	135
PSGTDKKTAAGETPS	747	3860	3710	1330	3020	216	694	412	1420	436	345
GTDNKTAAGGAPSPP	308	22700	4750	587	717	278	582	1870	199	320	180
GKDKKPAAGGTPSPP	217	141	1340	456	406	97	82.2	416	120	72.7	95.1
TPPSGKDKKAATGEA	347	1040	289	41800	1160	246	421	111	301	111	100
SGKDNKAAAGEAPSQ	7530	19500	1780	1240	7950	258	311	117	560	91.7	115
DKKAATGGTPSQSGA	520	444	947	693	1140	311	93.4	648	1010	170	166
NKTAAGETPSQSGAS	2490	5040	281	655	218	406	792	382	262	889	991
STPPSGKEKKAATGG	199	345	4470	9930	1270	258	241	112	309	75.3	132
GTDKKPAAGGAPSQS	430	870	7000	610	1330	164	224	200	141	356	159
ENKTATGGAPSQPGA	3050	4980	555	459	1150	384	204	417	242	539	263
SGKENKTATGEAPSP	25000	20500	1960	1930	20200	5950	3180	185	507	611	197
ISTPPSGTENKAATG	46300	52300	398	4410	26000	3460	721	462	936	395	749
PSGTEKKTAAGGTPS	803	2500	15600	8550	6140	360	244	525	350	542	534
KKTAAGGAPSQPGAS	904	419	4580	300	271	290	178	126	176	171	246
TPPSGKENKTAAGEA	10200	4300	385	2490	2210	1240	1120	464	883	197	261

Sequence	antibody binding signal [1]	antibody binding signal [2]	antibody binding signal [3]	antibody binding signal [4]	antibody binding signal [5]	antibody binding signal [6]	antibody binding signal [7]	antibody binding signal [8]	antibody binding signal [9]	antibody binding signal [10]	antibody binding signal [11]
GTDNKAATGEAPSPP	41900	41700	279	337	26600	134	593	782	105	106	109
KDNKPATGETPSPSG	28500	33600	286	198	25300	404	669	314	293	1870	2660
TPPSGTENKAAAGGT	48300	52400	588	6770	20000	2160	608	2030	891	270	557
PSGKEKKTATGETPS	3700	6890	4690	5310	8360	480	532	211	196	165	148
TEKKAAAGGTPSQPG	217	401	8990	698	2770	309	137	1720	229	494	294
EKKTAAGGTPSQSGA	963	236	11000	489	1840	276	942	1630	155	502	768
DNKTAAGGAPSQSGA	573	693	5230	577	380	326	492	781	284	644	249
GKDKKAAAGEAPSPP	222	751	727	761	7210	131	71.2	80	104	71.5	90.9
TPPSGKENKAAAGGA	633	1880	2710	2020	2520	3010	875	166	588	188	663
PPSGKDKKPAAGGTP	507	773	1410	35000	1180	223	418	666	252	79.7	119
PPSGKENKPATGETP	33500	28500	1010	2770	29000	3330	2580	362	894	1930	569
KKPAAGGAPSQSGAS	205	234	1470	288	185	226	107	139	79.1	113	178
TPPSGTEKKAAAGGT	1390	23000	1690	12500	2720	949	350	2010	134	97.2	190
GKEKKPATGGTPSPP	502	2120	4750	8490	6000	208	119	216	166	122	267
KEKKTATGEAPSPSG	6780	5140	237	251	13800	163	98	110	85.9	92.5	126
NKPAAGGTPSPPGAS	416	2510	1550	322	326	648	1110	1240	1710	201	1580
GKENKPATGGAPSQS	1200	16100	7700	8300	19000	773	685	136	125	140	146
TPPSGTDKKTAAGGA	12300	30000	6950	44200	1910	877	157	270	232	467	329
PPSGKEKKAATGGTP	326	1380	1570	4440	2990	303	211	187	298	79.4	122
KKPAAGGAPSPSGAS	232	401	1600	303	428	198	125	113	79.3	69.9	242
DNKTATGEAPSQSGA	32000	21600	237	520	21900	206	113	255	135	131	135
TENKAAAGGAPSPSG	509	1200	3880	461	712	299	160	219	301	146	433
TPPSGTDKKPAAGEA	35900	45200	10800	38700	6230	874	347	529	441	4860	374
SGTDNKPAAGGTPSP	1420	45200	3970	350	398	163	983	1060	662	440	236

Sequence	antibody binding signal [1]	antibody binding signal [2]	antibody binding signal [3]	antibody binding signal [4]	antibody binding signal [5]	antibody binding signal [6]	antibody binding signal [7]	antibody binding signal [8]	antibody binding signal [9]	antibody binding signal [10]	antibody binding signal [11]
SGTDNKAATGEAPSQ	40300	43400	190	283	30300	209	618	1010	120	125	155
PPSGTDNKAAAGGAP	41500	49300	3180	2770	5130	1120	845	1800	817	369	732
NKAATGGTPSQPGAS	596	10800	1040	281	457	864	885	656	530	886	1450
PSGKEKKPATGGAPS	7290	9290	17700	17000	8640	473	826	123	175	109	229
GKDKKPATGGAPSPS	863	399	1250	1430	2000	247	406	113	90	103	112
TDKKTAAGGAPSPPG	537	263	7180	769	862	238	102	166	319	339	154
TDKKAATGGAPSPSG	266	446	2100	1000	1820	328	712	150	718	123	132
STPPSGTDKKAAAGG	5340	34600	6330	45900	9410	930	163	183	204	1440	291
DNKTAAGGTPSPPGA	384	364	4170	315	1350	197	341	1340	345	1460	164
KKTAAGGAPSPSGAS	270	333	3820	471	378	223	114	130	216	107	213
KENKTATGGTPSQPG	260	369	1350	289	573	473	106	177	157	690	144
GTDKKPAAGGAPSPP	429	1110	11200	1010	1460	225	312	225	145	642	176
DNKTAAGETPSPPGA	288	715	252	305	808	155	320	256	204	261	395
PSGKENKTAAGGTPS	2280	10200	11600	9370	7820	5760	1810	333	440	570	170
SGTDNKPATGEAPSP	48700	48700	1260	198	38900	884	843	433	193	288	166
TDNKTAAGETPSPPG	254	964	258	328	959	145	371	220	131	140	1130
TEKKAATGETPSQSG	1790	14400	320	415	10300	419	242	283	596	299	214
STPPSGTDKKPATGG	9800	45000	13500	42000	17100	1510	1100	326	326	3560	868
ENKTATGEAPSQPGA	39400	42100	204	339	22100	191	124	284	211	257	142
SGKENKAATGGAPSQ	683	18700	6270	4380	17600	7780	1900	101	337	238	240
SGKENKAAAGEAPSP	3650	25400	6570	5010	19200	9050	3620	103	456	409	168
PPSGTDNKPAAGEAP	40400	45800	3400	2480	22500	843	678	623	412	672	353
SGTDNKTAAGETPSQ	530	41100	364	231	249	119	652	993	202	162	236
